{
  "source": "the supplement of paper PMC11417369",
  "note": "The list shows a part of the results.",
  "data": [
    {"test_system": "PfAP2-HC AP2 domain (GST-tagged)", "assay": "gcPBM binding intensity (ln(normalized median fluorescence intensity)); higher = stronger DNA binding", "summary_of_the_method": "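After 1 h on an Agilent 4 × 180k array of primer-extended double-stranded 36-bp intergenic genomic probes and negative controls, bound GST-tagged P. falciparum DNA-binding domains were detected with Alexa488 anti-GST antibody and scanned at 488 nm. The domains had been expressed in E. coli, and binding took place in 1× PBS with 1% milk, 0.2 mg/ml BSA, 0.5% salmon testes DNA and 0.03% Triton X-100. Binding intensity is the highest Masliner-normalised natural-log median intensity across replicate spots of either probe orientation.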", "values": [
      {"sequence": "CACAAACAAAGACACACACACACACGCACAAAAATG [CACACA_site7193]", "gcPBM binding intensity (ln)": 10.7},
      {"sequence": "AAAATGCATTTGATGTGTACGCATTATAAAGAACAA [XGTACX_site4203]", "gcPBM binding intensity (ln)": 9.79},
      {"sequence": "AATATATAAATTGACACACACATATATACATATATA [CACACA_site1213]", "gcPBM binding intensity (ln)": 10.1},
      {"sequence": "GATATGTTTTCCTAGGTTCATGATGATAGGTAGTTT [XGTACX_negctrl_site217]", "gcPBM binding intensity (ln)": 9.83},
      {"sequence": "TTTGTGGTTACATGTGCACACACTTATTTCGTTCTT [CACACA_site1435]", "gcPBM binding intensity (ln)": 10.7},
      {"sequence": "TATATTTGTTAATTTTGTACGTATGGATATACATAA [XGTACX_site5100]", "gcPBM binding intensity (ln)": 9.55},
      {"sequence": "TATAAATATAGAATTACACACAATGTTCTATAAATA [CACACA_site7508]", "gcPBM binding intensity (ln)": 9.7},
      {"sequence": "AAGGTGGTTATTAAATGTACACAGACATATACAAAA [XGTACX_site3007]", "gcPBM binding intensity (ln)": 9.76},
      {"sequence": "ATATGCTACATTATATGTACACACATATACATATAT [XGTACX_site1656]", "gcPBM binding intensity (ln)": 10.4},
      {"sequence": "TAATATAAAGAAATATCAATAATTTGGGCAAATGCC [GTGCAC_negctrl_site621]", "gcPBM binding intensity (ln)": 9.49},
      {"sequence": "AGGTAGAAAAAAGACACACACATTATATATATATAT [CACACA_site4367]", "gcPBM binding intensity (ln)": 10.2},
      {"sequence": "TTTTATGCATGTGAAGTGCAAAATAAAAAATAAAAT [GTGCAC_site9612]", "gcPBM binding intensity (ln)": 9.56},
      {"sequence": "TTCATTCATTTTATTACACACAAAAAAAAAAAAAAA [CACACA_site3680]", "gcPBM binding intensity (ln)": 9.28},
      {"sequence": "AGTTATTTTATAGAATATGAATAATTTTACTTTTCA [XGTACX_negctrl_site403]", "gcPBM binding intensity (ln)": 9.47},
      {"sequence": "AAAAAAAAAGGTACTACACACTATTCTCAATAGAAA [CACACA_site6193]", "gcPBM binding intensity (ln)": 9.74},
      {"sequence": "AATTTCATTTTACTTATCTAATATTTATAATCTTTT [CACACA_negctrl_site636]", "gcPBM binding intensity (ln)": 9.67},
      {"sequence": "AATAATATACCTCTTGTGCACATATTAAAAGTTCAT [GTGCAC_site9536]", "gcPBM binding intensity (ln)": 9.75},
      {"sequence": "TTCGTCTTTTTTCTCACACACCCTTTTTATTAAAAG [CACACA_site7225]", "gcPBM binding intensity (ln)": 10.2},
      {"sequence": "AAAGAATACATATATTGTACATATATATATACCGTT [XGTACX_site6250]", "gcPBM binding intensity (ln)": 9.98},
      {"sequence": "AGAATTAAAATAAAGGTGCATTTTTTTGTTTCATGT", "gcPBM binding intensity (ln)": 9.61},
      {"sequence": "ATAATACAAAACACAAGTACATAAATTAAAAAGATG [XGTACX_site7839]", "gcPBM binding intensity (ln)": 9.91},
      {"sequence": "ATATATATTAAAAATAGTACATATAATAAAAATCAT [XGTACX_site4265]", "gcPBM binding intensity (ln)": 9.96},
      {"sequence": "TACATATTCCTACAAATGTATAAATTATAAATATTA [XGTACX_negctrl_site30]", "gcPBM binding intensity (ln)": 9.43},
      {"sequence": "AACGATATAGGTACTACACACATTATGTCATCCTAT [CACACA_site7205]", "gcPBM binding intensity (ln)": 9.93},
      {"sequence": "TGTATATGTTTAATTAGTACATATAAAGTAACAATA [XGTACX_site1207]", "gcPBM binding intensity (ln)": 9.7},
      {"sequence": "ATATGAAATATATGTAGTACACATAATTAAAAGTAG [XGTACX_site6490]", "gcPBM binding intensity (ln)": 10.1},
      {"sequence": "AATTTTTATATAATTTAACACACATTTCATATAAAA [CACACA_site9018]", "gcPBM binding intensity (ln)": 9.54},
      {"sequence": "TTAGGATATTTATTTCGTACATATATTTTTAATTGT [XGTACX_site582]", "gcPBM binding intensity (ln)": 9.7},
      {"sequence": "TATAAATTATTTATCACACATAAAACAAAAATAAGA [CACACA_site5493]", "gcPBM binding intensity (ln)": 9.75},
      {"sequence": "TACTTCATATAATTAGCACACAATAATTTCTCATTT [CACACA_site2872]", "gcPBM binding intensity (ln)": 9.82},
      {"sequence": "TGTGTATTATAAACATGTACATAAAAATACGATATT [XGTACX_site3643]", "gcPBM binding intensity (ln)": 9.76},
      {"sequence": "CGCACTAAAAAACACACACACACACCCATATATATA [CACACA_site4152]", "gcPBM binding intensity (ln)": 11},
      {"sequence": "AAAAAAAAATAATATACACACTCCAATATAAAAAAT [CACACA_site3958]", "gcPBM binding intensity (ln)": 10.5},
      {"sequence": "AATGATGTTGTATTGTTTCGATATAACATCTAATTT [GTGCAC_negctrl_site309]", "gcPBM binding intensity (ln)": 9.46},
      {"sequence": "TTTTTTAAAATAATAGGTACACATAAAAAAAAAAAA [XGTACX_site2517]", "gcPBM binding intensity (ln)": 9.48},
      {"sequence": "AAGGATTATTTTAATCGTACATGTGTAAATAATATA [XGTACX_site6177]", "gcPBM binding intensity (ln)": 9.67},
      {"sequence": "TTTTTTCATTTTTTATTTTTTTATTTTTTACATATT [GTGCAC_negctrl_site137]", "gcPBM binding intensity (ln)": 9.73},
      {"sequence": "TATATATATAGACACACACACATATAAATAAATAAA [CACACA_site444]", "gcPBM binding intensity (ln)": 10.4},
      {"sequence": "CATACATACATACATACACACATATATATATATATG [CACACA_site1995]", "gcPBM binding intensity (ln)": 10},
      {"sequence": "TTATTTATTTTCATATGTACTTATTTATAGAGGTTG [XGTACX_site5599]", "gcPBM binding intensity (ln)": 9.58},
      {"sequence": "ATATAATAACAAAAGGTGCGCATTAAGACAAAAAAA", "gcPBM binding intensity (ln)": 10},
      {"sequence": "TTTTTCCCCCTTTTTTTGATTTTTATCTTAATTCTA [TGCATGCA_negctrl_site287]", "gcPBM binding intensity (ln)": 9.78},
      {"sequence": "TATTATATTGTTCATTTACACTTTCATTTTAAAAAA [CACACA_negctrl_site260]", "gcPBM binding intensity (ln)": 9.56},
      {"sequence": "ATATAATAAAATTAATGTACATATATGTATTATATA [XGTACX_site3283]", "gcPBM binding intensity (ln)": 9.81},
      {"sequence": "TTTCATATATATGAAACACACAAAGGAAAAAAAATT [CACACA_site4144]", "gcPBM binding intensity (ln)": 9.76},
      {"sequence": "AACATAATCTCATATACACACAAAAATATTGAAATA [CACACA_site7085]", "gcPBM binding intensity (ln)": 9.86},
      {"sequence": "AAAAAAAAAAAACACACACACATAGACCTCCAATAG [CACACA_site3562]", "gcPBM binding intensity (ln)": 10.3},
      {"sequence": "ACAAGTTTATTTGTTGCACACATATAAGTAGAGAAA [CACACA_site8994]", "gcPBM binding intensity (ln)": 9.78},
      {"sequence": "GCTCATATGACAACAACACACAAAAAAATAAAATGA [CACACA_site714]", "gcPBM binding intensity (ln)": 9.88},
      {"sequence": "ATATTTTGTTATGTAGATGTTGGTAGGAATTTTGGT [CACACA_negctrl_site1104]", "gcPBM binding intensity (ln)": 9.72},
      {"sequence": "AATAAATAAATAAATAAAACAAAGGGATTACATACA [TGCATGCA_negctrl_site513]", "gcPBM binding intensity (ln)": 9.88},
      {"sequence": "CACAACATATATATATATATATATATATATATGTGT [CACACA_negctrl_site28]", "gcPBM binding intensity (ln)": 9.39},
      {"sequence": "TTAAAAAAATATTGAAGTACACACATTATAAACTTT [XGTACX_site3548]", "gcPBM binding intensity (ln)": 9.72},
      {"sequence": "TACTTTTTAGGAAAGTGTACAAGCATATAAGGAATA [XGTACX_site2834]", "gcPBM binding intensity (ln)": 9.58},
      {"sequence": "ATTTTTTTTTTTTTTTTTTTTTTTTTTTAATCTGGA [CACACA_negctrl_site1347]", "gcPBM binding intensity (ln)": 9.04},
      {"sequence": "ATATTTAACAGGTTAAAAATATAAACAAATAAATAA [CACACA_negctrl_site907]", "gcPBM binding intensity (ln)": 9.69}
    ]}
  ]
}
